From patent US20110097312A1, “ANTI-CANCER VACCINES” (BOARD OF REGENTS, THE UNIVERSITY OF TEXAS SYSTEM, priority 2008, published 2011)

System: peptide-loaded T2 cells
Assay: Induction of primary CTL responses; cytotoxicity toward peptide-loaded T2 cells
Settings: different donors and differing peptide concentrations
Text: Induction of Primary CTL responses to peptides. These peptides were next used to stimulate T cells specific for peptide-coated targets. PBMC from a normal healthy donor heterozygous for HL-A2.1 were stimulated with peptide-pulsed T2 cells. The T2 cell line has been used by others as an antigen presenting cell for the generation of peptide-specific CTL. Briefly, T2 cells (which co-express the costimulatory molecule B7.1) were washed 3 times in serum-free RPMI culture media supplemented with penicillin/streptomycin and glutamine (CM) and incubated with peptide at 20 μg/mL for 2 hr in CM. The peptide loaded T2 cells were then irradiated with 7500 cGy, washed once, and suspended with freshly isolated PBMC at a 1:1 ratio in CM supplemented with 10% human serum (HS) (Sigma, St. Louis, Mo.). After 7 days in culture, a second stimulation was performed and the following day, 60 IU/ml of recombinant human interleukin-2 (rhIL2) (Biosource International, Camarillo, Calif.) was added. After 14 days in culture a third stimulation was performed, followed on day 15 by addition of rhIL-2. A fourth stimulation was performed on day 21 followed on day 22 by the addition of rhIL2. After a total of 27 days in culture, the peptide-stimulated T cells were harvested and tested for peptide-specific cytotoxicity toward Calcein AM-labeled T2 cells, leukemia cell lines, and fresh human leukemia cells, as merely exemplary embodiments. Such studies are extrapolated to breast cancer cells using similar procedures.
The five MPO peptides discussed above were used to stimulate T cells specific for peptide-coated targets. PBMC from a normal healthy donor heterozygous for HLA-A2.1 were stimulated with peptide-pulsed T2 cells. The T2 cell line has been used by others as an antigen presenting cell for the generation of peptide-specific CTL. Briefly, T2 cells (which co-express the costimulatory molecule B7.1) were washed 3 times in serum-free RPMI culture media supplemented with penicillin/streptomycin and glutamine (CM) and incubated with peptide at concentrations ranging from 0.2 to 200 μg/mL for 2 hr in CM. […]

| Sequence | elicitation of peptide specific CTL lines |
| --- | --- |
| LIQPFMFRL [MY5] | No peptide specific CTL lines could be elicited |
| SLWRRPFNV [MY1] | No peptide specific CTL lines could be elicited |
| LLSYFKQPV [MY3] | No peptide specific CTL lines could be elicited |
